Source: the RNAGym collection of RNA variant scans (doi:10.7554/elife.90254)
Read counts are not given, so values of variants with three or more changes are uncertain.

B1: LINE1-full (parent)
chain: UACGUAGGUGGUUUUCCCCUGAUAGUGCUAAGGGGGCCUGGAAGUUUGGACUGGGCAGAGCUCAACACAGCGUGGCAAAGUGGCUGUGGCUAGACUGCCUCUCUGGAUUCCUCGUCACUCAGCAGGGCAUCUCUGAGAGAAAUGCC

Variants of: B1
Test: self-cleavage, relative activity (ratio to wild type); higher = more cleavage; in vitro, sequencing; the parent is a self-cleaving ribozyme

**Q.** Which self-cleavage does the source give for U13C U62C U91C U115C here?
**A.** 1.23

**Q.** With U13C U62C U96G A142G as the variant, how does the self-cleavage read?
**A.** 0.4

**Q.** For U13C U62C U132A, which self-cleavage is on record?
**A.** 0

**Q.** With U13C U73A A78C as the variant, how does the self-cleavage read?
**A.** 2.13

**Q.** Which self-cleavage does the source give for U13C U73A A117G A141G here?
**A.** 1.59

**Q.** Which self-cleavage does the source give for U13C U73A U91C here?
**A.** 0.21

**Q.** With U13C U73A U115A as the variant, how does the self-cleavage read?
**A.** 1.22

**Q.** Which self-cleavage does the source give for U13C U73C A77U here?
**A.** 1.28

**Q.** Which self-cleavage does the source give for U13C U73C A94G here?
**A.** 0.48

**Q.** For U13C U73C A129U, which self-cleavage is on record?
**A.** 1.08

**Q.** With U13C U73C A138U as the variant, how does the self-cleavage read?
**A.** 1.67

**Q.** Which self-cleavage does the source give for U13C U73C U143C here?
**A.** 0.5

**Q.** For U13C U73G U112C, which self-cleavage is on record?
**A.** 0.19

**Q.** With U13C U81C A124G as the variant, how does the self-cleavage read?
**A.** 0.32

**Q.** With U13C U81C U112C as the variant, how does the self-cleavage read?
**A.** 0.5

**Q.** Which self-cleavage does the source give for U13C U81C U119C here?
**A.** 0.97

**Q.** With U13C U85A U112C as the variant, how does the self-cleavage read?
**A.** 0.08

**Q.** Which self-cleavage does the source give for U13C U85C A107G U130C here?
**A.** 0.2

**Q.** For U13C U85C A136G A138G, which self-cleavage is on record?
**A.** 0

**Q.** Which self-cleavage does the source give for U13C U85C C111U here?
**A.** 0.21

**Q.** For U13C U87C U104A U119C A138G A140U, which self-cleavage is on record?
**A.** 0

**Q.** For U13C U87C U108C, which self-cleavage is on record?
**A.** 0.86

**Q.** With U13C U87C U109A U143C as the variant, how does the self-cleavage read?
**A.** 0.22

**Q.** With U13C U91A A141U as the variant, how does the self-cleavage read?
**A.** 0.58

**Q.** Which self-cleavage does the source give for U13C U91C A107G here?
**A.** 0

**Q.** Which self-cleavage does the source give for U13C U91C A140U here?
**A.** 1.38

**Q.** For U13C U91G C99A, which self-cleavage is on record?
**A.** 0.08

**Q.** Which self-cleavage does the source give for U13C U96A A129G U132A A138G here?
**A.** 0.2

**Q.** Which self-cleavage does the source give for U13C U96C A117G here?
**A.** 0

**Q.** For U13C U96C A121G, which self-cleavage is on record?
**A.** 0.29

**Q.** For U13C U96C A141G, which self-cleavage is on record?
**A.** 0.34

**Q.** Which self-cleavage does the source give for U13C U100A U102A here?
**A.** 0.7

**Q.** For U13C U100C C120U, which self-cleavage is on record?
**A.** 1.88

**Q.** Which self-cleavage does the source give for U13C U100C C128A here?
**A.** 1.13

**Q.** For U13C U100C U102C A140G C145A, which self-cleavage is on record?
**A.** 2.83

**Q.** For U13C U100C U112A G114A, which self-cleavage is on record?
**A.** 2.35

**Q.** With U13C U102C U115G U132C as the variant, how does the self-cleavage read?
**A.** 0.57

**Q.** With U13C U104C G144U as the variant, how does the self-cleavage read?
**A.** 0.77

**Q.** For U13C U112A A129G A136U A138G, which self-cleavage is on record?
**A.** 2.12

**Q.** With U13C U112C A124U U134A as the variant, how does the self-cleavage read?
**A.** 0.69

**Q.** With U13C U112C A129G as the variant, how does the self-cleavage read?
**A.** 0.96

**Q.** For U13C U115A G125A A140G, which self-cleavage is on record?
**A.** 1.21

**Q.** With U13C U115C A117U as the variant, how does the self-cleavage read?
**A.** 1.67

**Q.** Which self-cleavage does the source give for U13C U132C A141G here?
**A.** 1.39

**Q.** Which self-cleavage does the source give for U13G A22G U109A here?
**A.** 1.43

**Q.** With U13G A50C U91C A117U U132C as the variant, how does the self-cleavage read?
**A.** 1.38

**Q.** Which self-cleavage does the source give for U13G A65G A92U G127U here?
**A.** 0

**Q.** With U13G A77G C131U as the variant, how does the self-cleavage read?
**A.** 1.3

**Q.** Which self-cleavage does the source give for U13G A77G U143G here?
**A.** 1.67

**Q.** With U13G C19U G36A U108G as the variant, how does the self-cleavage read?
**A.** 0.65

**Q.** Which self-cleavage does the source give for U13G U26C U102A U132C here?
**A.** 0

**Q.** Which self-cleavage does the source give for U13G U45A U47A here?
**A.** 0.39

**Q.** Which self-cleavage does the source give for U13G U46G U85A U102C A141G here?
**A.** 0

**Q.** For U13G U96A A117G U134A, which self-cleavage is on record?
**A.** 0.19

**Q.** For U13G U104A C111A, which self-cleavage is on record?
**A.** 1.41

**Q.** Which self-cleavage does the source give for U13G U112C A142G U143A here?
**A.** 0

**Q.** With U13G U119C A141G as the variant, how does the self-cleavage read?
**A.** 1.36

**Q.** For U14A A22U G88A A117G, which self-cleavage is on record?
**A.** 0.13

**Q.** Which self-cleavage does the source give for U14A A22U U100A here?
**A.** 0.92

**Q.** With U14A A24G G55C U62C A78G as the variant, how does the self-cleavage read?
**A.** 0.14

**Q.** With U14A A30G U39A A50G G54A A69G as the variant, how does the self-cleavage read?
**A.** 0

**Q.** Which self-cleavage does the source give for U14A A31G A78U A79G A141G here?
**A.** 1.22

**Q.** For U14A A42U U134A, which self-cleavage is on record?
**A.** 0.41

**Q.** With U14A A43G C90A U112C A136G as the variant, how does the self-cleavage read?
**A.** 0.07

**Q.** Which self-cleavage does the source give for U14A A50G A65G here?
**A.** 0.08

**Q.** With U14A A50G A77G A92G as the variant, how does the self-cleavage read?
**A.** 1.08

**Q.** Which self-cleavage does the source give for U14A A57G A69U here?
**A.** 0.04

**Q.** With U14A A57G U85C as the variant, how does the self-cleavage read?
**A.** 0.26

**Q.** For U14A A59G A64G A129C, which self-cleavage is on record?
**A.** 0

**Q.** With U14A A59U U130A as the variant, how does the self-cleavage read?
**A.** 0.99

**Q.** With U14A A64U A121G as the variant, how does the self-cleavage read?
**A.** 0.23

**Q.** With U14A A65U A117G as the variant, how does the self-cleavage read?
**A.** 0.37

**Q.** With U14A A69G A140C as the variant, how does the self-cleavage read?
**A.** 0

**Q.** Which self-cleavage does the source give for U14A A69G G127A A140U here?
**A.** 0.46

**Q.** With U14A A77G A141G as the variant, how does the self-cleavage read?
**A.** 1.64

**Q.** With U14A A77U U112A as the variant, how does the self-cleavage read?
**A.** 0.71

**Q.** For U14A A78G A79G U115A, which self-cleavage is on record?
**A.** 0.13

**Q.** With U14A A78G U143A as the variant, how does the self-cleavage read?
**A.** 0.99

**Q.** For U14A A138G A142C, which self-cleavage is on record?
**A.** 1.29

**Q.** Which self-cleavage does the source give for U14A C19U U39C here?
**A.** 0.43

**Q.** Which self-cleavage does the source give for U14A C61A A142G here?
**A.** 0.03

**Q.** For U14A C71A G97A A136G, which self-cleavage is on record?
**A.** 0.07

**Q.** For U14A G21A U134C, which self-cleavage is on record?
**A.** 0.12

**Q.** For U14A G32A U45C U102C G114C A124G, which self-cleavage is on record?
**A.** 0.94
